About 110 (3.4%) of roughly 3,200 compounds showed an effect of 50% or more. The list shows a part of the results.
tested on: T1, V. cholerae SAD30; design: species or system S. aureus MSSA476 (TSB) or V. cholerae SAD30 (LB); 384-well bacterial growth screen at 25 uM, OD600 relative to DMSO control; conditions: relative growth, OD600, LB; 25 µM; inhibitor
T1 construct: SAD30

SMILES	% of control remaining
Cc1cccc(C)c1NC(=O)CNC(=O)C(C)Cl (stereo not drawn) [6-F10, 2-chloro-N-{[(2,6-dimethylphenyl)carbamoyl]methyl}propanamide]	86.1503%
CCCCNC(=O)C(C#N)=Cc1cc(C)c(O)c(C)c1 [9-E09, N-butyl-2-cyano-3-(4-hydroxy-3,5-dimethylphenyl)prop-2-enamide]	83.4126%
C=CC(=O)N1CCC(n2nc(C)nc2O)CC1 [3-P21, 1-[4-(5-hydroxy-3-methyl-1H-1,2,4-triazol-1-yl)piperidin-1-yl]prop-2-en-1-one]	115.38%
O=C(CCl)c1ccc(F)c(F)c1 [10-L13, 2-chloro-1-(3,4-difluorophenyl)ethan-1-one]	4.208%
CC(Cl)C(=O)NC1CS(=O)(=O)Cc2ccccc21 (stereo not drawn) [6-L20, 2-chloro-N-(2,2-dioxo-3,4-dihydro-1H-2lambda6-benzothiopyran-4-yl)propanamide]	91.9139%
O=C(CCl)NC(c1ccccc1)c1cccs1 (stereo not drawn) [4-J14, 2-chloro-N-[phenyl(thiophen-2-yl)methyl]acetamide]	104.205%
C=CC(=O)NCc1c(Cl)c(C(F)(F)F)nn1C [2-J07, N-{[4-chloro-1-methyl-3-(trifluoromethyl)-1H-pyrazol-5-yl]methyl}prop-2-enamide]	87.88%
CC(Cl)C(=O)NC1CCCN(S(=O)(=O)N2CCOCC2)C1 (stereo not drawn) [6-L03, 2-chloro-N-[1-(morpholine-4-sulfonyl)piperidin-3-yl]propanamide]	103.289%
C=CC(=O)N1CCOC(c2noc(C(C)C)n2)C1 (stereo not drawn) [1-O05, 1-{2-[5-(propan-2-yl)-1,2,4-oxadiazol-3-yl]morpholin-4-yl}prop-2-en-1-one]	92.0777%
C=CC(=O)NC1CCN(c2ccccc2S(=O)(=O)CC)CC1 [2-M03, N-{1-[2-(ethanesulfonyl)phenyl]piperidin-4-yl}prop-2-enamide]	99.3052%
C=CC(=O)N(C)CC(=O)NC(C)(C)c1nc(C)cs1 [3-E14, N-methyl-N-({[2-(4-methyl-1,3-thiazol-2-yl)propan-2-yl]carbamoyl}methyl)prop-2-enamide]	97.7357%
O=C(CCl)NCCN1C(=O)SC(=Cc2ccccc2F)C1=O [4-A10, 2-chloro-N-(2-{5-[(2-fluorophenyl)methylidene]-2,4-dioxo-1,3-thiazolidin-3-yl}ethyl)acetamide]	105.24%
COc1ccc2c(c1)OCCN(C(=O)C(C)Cl)C2 (stereo not drawn) [7-E04, 2-chloro-1-(8-methoxy-2,3,4,5-tetrahydro-1,4-benzoxazepin-4-yl)propan-1-one]	86.04%
O=C(CCl)N1CCN(S(=O)(=O)c2cccc([N+](=O)[O-])c2)CC1 [4-C19, 2-chloro-1-[4-(3-nitrobenzenesulfonyl)piperazin-1-yl]ethan-1-one]	91.0934%
C=CC(=O)NC1CCCN(c2cc(N3CCOCC3)ncn2)C1 (stereo not drawn) [1-A08, N-{1-[6-(morpholin-4-yl)pyrimidin-4-yl]piperidin-3-yl}prop-2-enamide]	90.284%
N#CC(C(=O)CCl)=C1Nc2cc(Cl)ccc2S1 [10-O08, 4-chloro-2-(5-chloro-2,3-dihydro-1,3-benzothiazol-2-ylidene)-3-oxobutanenitrile]	95.5387%
CC(Cl)C(=O)NCC(c1ccc(Cl)cc1)n1cccn1 (stereo not drawn) [7-J05, 2-chloro-N-[2-(4-chlorophenyl)-2-(1H-pyrazol-1-yl)ethyl]propanamide]	79.4317%
N#CC(=Cc1cccc(F)c1F)C(=O)NCc1ccccc1 [8-B06, N-benzyl-2-cyano-3-(2,3-difluorophenyl)prop-2-enamide]	74.983%
O=C(CCl)Cc1cccc(F)c1 [10-C11, 1-chloro-3-(3-fluorophenyl)propan-2-one]	7.637%
CC(=O)c1ccc(NC(=O)CCl)cc1 [4-G07, N-(4-acetylphenyl)-2-chloroacetamide]	103.515%
Cn1cccc1C(=O)CCl [10-B04, 2-chloro-1-(1-methyl-1H-pyrrol-2-yl)ethan-1-one]	98.1882%
C=CC(=O)NCCNS(=O)(=O)c1cc(C)ccc1F [2-L11, N-[2-(2-fluoro-5-methylbenzenesulfonamido)ethyl]prop-2-enamide]	86.1816%
N#CC(=Cc1cn2cc(Cl)ccc2n1)C(=O)NC1CCCC1 [9-P15, 3-{6-chloroimidazo[1,2-a]pyridin-2-yl}-2-cyano-N-cyclopentylprop-2-enamide]	87.7634%

SMILES	% of control remaining
C=CC(=O)N(CC)CC(=O)N1CCCC(c2nccn2C)C1 (stereo not drawn) [3-F03, N-ethyl-N-{2-[3-(1-methyl-1H-imidazol-2-yl)piperidin-1-yl]-2-oxoethyl}prop-2-enamide]	109.557%
C=CC(=O)Nc1ccccc1Cl [1-O10, N-(2-chlorophenyl)prop-2-enamide]	91.1809%
C=CC(=O)NC1CCC(OCc2cc(C)no2)CC1 (stereo not drawn) [1-M08, N-{4-[(3-methyl-1,2-oxazol-5-yl)methoxy]cyclohexyl}prop-2-enamide]	88.3408%
NS(=O)(=O)c1cccc2cc(NC(=O)CCl)ccc12 [5-K16, 2-chloro-N-(5-sulfamoylnaphthalen-2-yl)acetamide]	109.11%
CC(Cl)C(=O)NC1CCN(S(C)(=O)=O)C1 (stereo not drawn) [7-I15, 2-chloro-N-(1-methanesulfonylpyrrolidin-3-yl)propanamide]	82.6037%
C=CC(=O)N1CCC(c2cnn(C)c2)CC1 [2-I10, 1-[4-(1-methyl-1H-pyrazol-4-yl)piperidin-1-yl]prop-2-en-1-one]	86.9536%
CC(C)NC(=O)C(C#N)=Cc1ccc(C#N)cc1 [9-M11, 2-cyano-3-(4-cyanophenyl)-N-(propan-2-yl)prop-2-enamide]	88.9871%
Cc1ccc(C=C(C#N)C(=O)NCc2ccco2)o1 [8-P19, 2-cyano-N-[(furan-2-yl)methyl]-3-(5-methylfuran-2-yl)prop-2-enamide]	80.6934%
CC(Cl)C(=O)N1CC=C(C(F)(F)F)CC1 (stereo not drawn) [5-J19, 2-chloro-1-[4-(trifluoromethyl)-1,2,3,6-tetrahydropyridin-1-yl]propan-1-one]	96.8372%
C=CC(=O)N1CCC(C(=O)N2CCN(CC(C)C)C(=O)C2C)CC1 (stereo not drawn) [2-B08, 3-methyl-1-(2-methylpropyl)-4-[1-(prop-2-enoyl)piperidine-4-carbonyl]piperazin-2-one]	91.5854%
CCCn1c(N)c(C(=O)CCl)c(=O)[nH]c1=O [10-L10, 6-amino-5-(2-chloroacetyl)-1-propyl-1,2,3,4-tetrahydropyrimidine-2,4-dione]	102.708%
C=CC(=O)N1CCC(C(=O)N[C@@H]2CC[C@H](O)C2)(c2ccccc2)CC1 (racemic) [2-H16, rac-N-[(1R,3S)-3-hydroxycyclopentyl]-4-phenyl-1-(prop-2-enoyl)piperidine-4-carboxamide]	89.4239%
C=CC(=O)NCc1ccc(C(=O)N2CCC(c3nc(C)no3)C2)cc1 (stereo not drawn) [2-P08, N-({4-[3-(3-methyl-1,2,4-oxadiazol-5-yl)pyrrolidine-1-carbonyl]phenyl}methyl)prop-2-enamide]	97.9157%
C=CC(=O)N1CCC(c2nc(C3CC3)no2)C1 (stereo not drawn) [2-E09, 1-[3-(3-cyclopropyl-1,2,4-oxadiazol-5-yl)pyrrolidin-1-yl]prop-2-en-1-one]	93.9014%
O=C(CCl)Nc1cc(S(=O)(=O)N2CCOCC2)ccc1O [6-J12, 2-chloro-N-[2-hydroxy-5-(morpholine-4-sulfonyl)phenyl]acetamide]	86.302%
O=C(CCl)NCc1cnn(-c2ccccc2)n1 [6-J03, 2-chloro-N-[(2-phenyl-2H-1,2,3-triazol-4-yl)methyl]acetamide]	103.289%
CC1CCCCC1NC(=O)CCl (stereo not drawn) [6-C10, 2-chloro-N-(2-methylcyclohexyl)acetamide]	90.7005%
N#CC(=Cc1ccccc1)C(=O)NC1CC1 [9-M15, 2-cyano-N-cyclopropyl-3-phenylprop-2-enamide]	90.6186%
CC1CN(C(=O)C(C)Cl)CC(C)O1 (stereo not drawn) [5-F04, 2-chloro-1-(2,6-dimethylmorpholin-4-yl)propan-1-one]	102.217%
CC(Cl)C(=O)N1CC(Cc2cccs2)C1 (stereo not drawn) [7-I04, 2-chloro-1-{3-[(thiophen-2-yl)methyl]azetidin-1-yl}propan-1-one]	84.7183%
Cc1ccc(C=C(C#N)C(=O)Nc2ccccc2C(F)(F)F)cc1 [8-E16, 2-cyano-3-(4-methylphenyl)-N-[2-(trifluoromethyl)phenyl]prop-2-enamide]	69.2726%
CC(Cl)C(=O)N1CC(C(=O)N2CCN(C)CC2)Oc2ccccc21 (stereo not drawn) [7-A20, 2-chloro-1-[2-(4-methylpiperazine-1-carbonyl)-3,4-dihydro-2H-1,4-benzoxazin-4-yl]propan-1-one]	79.9604%

Reference: paper PMC11995724, “Antibiotic target discovery by integrated phenotypic and activity-based profiling of electrophilic fragments” (Cell chemical biology, 2025)
